This note sets out measurements from paper PMC4336329 (PLoS ONE, 2015).

Molecules are shown by their SMILES. About 2,200 (0.71%) of roughly 310,000 compounds showed an effect of 50% or more. The effect is printed as a negative number. This is one part of the list.

The target of this test is human ether-à-go-go-related gene (hERG) potassium channel (human, UniProt Q12809). The test is described as follows: primary screen, population patch clamp on CHO cells stably expressing hERG.
human ether-à-go-go-related gene (hERG) potassium channel, sequence (Q12809 whole entry, looked up): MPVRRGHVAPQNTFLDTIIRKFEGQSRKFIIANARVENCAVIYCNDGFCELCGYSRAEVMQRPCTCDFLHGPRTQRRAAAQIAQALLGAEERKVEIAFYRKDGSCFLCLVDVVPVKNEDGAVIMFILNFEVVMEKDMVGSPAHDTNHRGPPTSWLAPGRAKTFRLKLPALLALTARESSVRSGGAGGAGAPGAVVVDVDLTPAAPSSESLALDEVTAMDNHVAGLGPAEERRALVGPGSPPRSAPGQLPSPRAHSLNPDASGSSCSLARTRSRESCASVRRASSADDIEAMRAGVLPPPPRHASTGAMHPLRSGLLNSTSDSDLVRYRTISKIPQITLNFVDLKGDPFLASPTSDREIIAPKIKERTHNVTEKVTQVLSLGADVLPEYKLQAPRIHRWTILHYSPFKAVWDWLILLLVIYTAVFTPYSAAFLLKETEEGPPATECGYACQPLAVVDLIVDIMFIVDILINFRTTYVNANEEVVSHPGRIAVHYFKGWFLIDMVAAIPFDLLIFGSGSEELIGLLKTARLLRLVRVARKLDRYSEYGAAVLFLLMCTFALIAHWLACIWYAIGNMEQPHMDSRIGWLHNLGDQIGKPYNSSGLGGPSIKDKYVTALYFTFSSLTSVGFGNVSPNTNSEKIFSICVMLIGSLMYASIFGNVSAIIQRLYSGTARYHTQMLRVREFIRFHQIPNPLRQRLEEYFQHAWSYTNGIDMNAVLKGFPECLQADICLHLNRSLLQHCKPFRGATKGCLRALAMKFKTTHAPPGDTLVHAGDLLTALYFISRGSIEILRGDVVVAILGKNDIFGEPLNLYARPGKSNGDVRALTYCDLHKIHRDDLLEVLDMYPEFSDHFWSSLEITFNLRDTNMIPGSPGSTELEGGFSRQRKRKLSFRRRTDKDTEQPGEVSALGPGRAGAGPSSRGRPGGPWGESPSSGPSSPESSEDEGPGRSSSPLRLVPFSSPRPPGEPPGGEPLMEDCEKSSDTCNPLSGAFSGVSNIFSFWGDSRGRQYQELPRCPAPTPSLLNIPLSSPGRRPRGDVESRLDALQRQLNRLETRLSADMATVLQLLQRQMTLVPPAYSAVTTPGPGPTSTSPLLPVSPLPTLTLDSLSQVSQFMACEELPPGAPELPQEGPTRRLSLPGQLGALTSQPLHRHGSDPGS
For `CCN(CC(=O)Nc1cccc(F)c1)CC(=O)Nc1ccccc1OC`, the “hERG current change (%, negative = inhibition) at 1uM” value is -0.967%.

Take `COC(=O)C1CCN(c2nc3ccccc3nc2C(C#N)C(=O)OCC(C)C)CC1` (stereo not drawn): the “hERG current change (%, negative = inhibition) at 1uM” value amounted to 6.17%. As for `O=C(COc1ccccc1Cl)Nc1cc(Cl)ccc1Oc1ccccc1`, the figure is 11.2%; as for `CCS(=O)(=O)NCCc1csc(-c2ccccc2)n1`, 5.16%; as for `CCOC(=O)N1CCC(NC(=O)c2cc(S(=O)(=O)N3CCCC3)cn2C)CC1`, 6.54%. As for `CCN(CC(=O)Nc1c(F)cccc1F)C(=O)c1ccc(NC(=O)CC2SC(N3CCCC3)=NC2=O)cc1` (stereo not drawn), the figure is 6.54%. On to `O=[N+]([O-])c1nn(-c2ccc3c(c2)OCCO3)n(O)c1=NCCC1=CCCCC1`, for which the “hERG current change (%, negative = inhibition) at 1uM” value is given as 6.29%.

Turning to `Cc1cc(NC(=O)c2ccc(Cl)cc2)c(C)cc1O`, the “hERG current change (%, negative = inhibition) at 1uM” value turned out to be 5.06%. As for `CCn1ccnc1CN(C)Cc1cn(-c2cc(C)ccc2C)nc1-c1ccccc1`, the figure is -19.5%. As for `O=S(=O)(c1ccc(OCC(O)CN2CCN(c3ccc(F)cc3)CC2)cc1)N1CCOCC1` (stereo not drawn), the figure is -0.0571%; as for `CC1CCN(S(=O)(=O)c2ccc(NC(=O)c3cccs3)cc2)CC1`, 7.51%.

In the case of `O=C(O)c1cccc(Nc2ncnc3ccccc23)c1`, the “hERG current change (%, negative = inhibition) at 1uM” value was 14%. As for `CCCNC(=S)N1CCN(Cc2ccc3c(c2)OCO3)CC1.O=C(O)C(=O)O`, the figure is -5.97%. In the case of `COc1ccc(C(=O)COC(=O)C2CC3CCCC(C2)C3=O)cc1Br` (stereo not drawn), the “hERG current change (%, negative = inhibition) at 1uM” value is recorded as 7.42%. As for `CC(C)(C)N1CCC1C(N)=O` (stereo not drawn), the figure is 3.68%. Next, `O=C(CCCOc1ccc(Cl)cc1)NCC1CCCO1` (stereo not drawn): 10.2%; `CC(C)n1c(=O)[nH]c2cc(C(=O)Nc3ccccc3)ccc21`: 13.6%.

As to `COc1ccc(C(=O)N/N=C2/SCC(=O)N2Cc2ccc3c(c2)OCO3)cc1OC`, the “hERG current change (%, negative = inhibition) at 1uM” value came to 11.1%.

In the case of `CCCC(=O)Nc1nnc(SCC(=O)N2CCCCC2)s1`, the “hERG current change (%, negative = inhibition) at 1uM” value worked out at 6.17%.

For the molecule `CC[C@H]1c2[nH]c3ccccc3c2C[C@@H]2C(=O)N(c3ccc(F)cc3)C(=O)N21`, the “hERG current change (%, negative = inhibition) at 1uM” value came to 11.6%. Next, `CN1CCN(C(=S)NC(=O)c2ccco2)CC1`: 4.35%; `COc1ccc(N(CC(=O)N2CCN(c3ccccc3)CC2)S(=O)(=O)c2ccc(C)cc2)cc1`: 15%. Next, `CCOC(=O)C(=O)Nc1ccc([N+](=O)[O-])cc1OC`: 7.06%; `CCOC(=O)C1CCCN(C(=O)c2cccc(S(=O)(=O)N(Cc3ccccc3)c3ccccc3OC)c2)C1` (stereo not drawn): -11.6%.
